In PubChem BioAssay AID493208 (National Center for Advancing Translational Sciences (NCATS), 2011):
Out of some 44,000 compounds screened, about 340 (0.77%) were called active. Another 5% or so got no clear call; they are omitted. The call rests on the fitted dose curve; in most records, active means well fitted inhibition curve with a large enough effect; inconclusive means small, poorly fitted or top-dose-only effect; inactive means flat fitted curve, though single readings scatter. Some of the results follow.

Assay: Acumen qHTS Assay for Inhibitors of the mTORC1 Signaling Pathway in MEF (Tsc2-/-, p53-/-) Cells: Sytravon;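 further: plate controls were DMSO for no effect and rapamycin for full effect; nearly all actives have a fitted effect of over 50% in size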
Settings: phospho-rpS6 immunofluorescence/PI, 24 h; series mostly up to 38.3 µM; activity change, negative = inhibition: at the top concentration
Method in brief: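 Cell-based qHTS: Tsc2-/- p53-/- MEF, 24 h cpd, 37 °C; fix/perm, anti-phospho-S6 Alexa-488 + PI; Acumen 488 nm scan; pS6/PI ratio, % positive cells; rapamycin 7.5 nM = inhibition ref; PI count = viability.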

Activity change, negative = inhibition, inactive:
COc1ccc(OC)c(NC(=O)c2cc(S(=O)(=O)NCCc3ccc(Cl)cc3)ccc2F)c1 7.02%
CCC(C)NC(=O)Cn1c(=O)n(-c2ccc(C)c(C)c2)c(=O)c2c3c(sc21)CCCCC3 (stereo unspecified) -5.01%
CCCCc1nn2c(=O)cc(COC(=O)C3CCCCC3)nc2s1 -8.06%
Cc1nc2nc(SCC(=O)NC3CCC(C)CC3)nn2c(C)c1Cc1ccccc1 (stereo unspecified) -21.5%
CCOc1ccc(OCC)c(NC(=O)c2ccc(-c3ccccc3)s2)c1 -1.19%
CCOc1ccc(CCNC(=O)c2sc3ncccc3c2-n2cccc2)cc1OCC 0%
COC(=O)c1ccc(-c2nc3cc(NC(C)=O)ccc3o2)cc1 -5.89%
COc1ccc(-n2c(=O)c3ccccc3n(Cc3cccc(C)c3)c2=O)cc1 -12%
CCCN(c1ccc(C(C)C)cc1)S(=O)(=O)c1ccc2c(c1)oc(=O)n2CC(=O)OCC -14.1%
COc1cccc(Cn2c(CNS(=O)(=O)c3ccc(C(C)(C)C)cc3)nc3cccnc32)c1 -3.45%
COc1ccccc1N1CCN(C(=O)c2cc(S(=O)(=O)N3CCC(C)CC3)cn2C)CC1 -11.9%
COc1ccc(-c2nc(CNC(=O)Nc3ccccc3)c(C)o2)cc1 7.87%
CCOC(=O)Cn1c(=O)n(CC2CCCO2)c2nc(-c3ccc(C(C)C)cc3)nc(C(N)=O)c21 (stereo unspecified) -2.59%
O=C(Nc1nnc(S(=O)(=O)Nc2ccccc2)s1)C1CCCCC1 4.77%
CCCSc1nnc2[nH]c(=O)cc(C)n12 -4.11%
COc1cc2c(-c3cc(Br)ccc3O)nc3c(c(C)nn3-c3ccccc3)c2cc1OC -4.63%
Cc1ccccc1N(C)S(=O)(=O)c1nnc(NC(=O)C(C)C)s1 -1.63%
CCOC(=O)c1ccc(N2C(=O)c3n[nH]c(C)c3C2c2ccc(OCC)cc2)cc1 (stereo unspecified) 0.744%
Cc1ccccc1NC(=O)Cn1c(=O)n(Cc2ccccc2)c(=O)c2sc3ccccc3c21 -4.87%
CCOc1ccc(C(=O)NCC(c2ccco2)S(=O)(=O)c2cccs2)cc1 (stereo unspecified) 1.16%
COc1ccc2c(C)c(CCC(=O)NCc3ccc(Cl)cc3)c(=O)oc2c1C -11.7%
Cc1nn(-c2ccc(N3CCCC3)nn2)c(C)c1CCC(=O)N1CCN(c2ccccc2)CC1 -3.96%
Cc1ccccc1-c1nn2c(=O)cc(CN3CCN(S(=O)(=O)c4ccc(Cl)cc4)CC3)nc2s1 -0.989%
COC(=O)c1ccc(C(=O)OC)c(NC(=O)c2cnn3c(C(F)F)cc(-c4ccccc4)nc23)c1 -0.744%
COc1ccc(NC(=O)Cn2c(=O)n(-c3cccc(C(F)(F)F)c3)c(=O)c3sccc32)cc1 -14.3%
O=C(NCC(c1ccc(Cl)cc1)N1CCCCC1)c1ccccc1F (stereo unspecified) -8.46%
CCOc1ccc(OCC)c(NC(=O)CCc2nc3cccnc3n2-c2ccccc2)c1 -9.67%
CCC1CN(C(=O)Nc2ccc(Br)cc2F)c2ccccc2S1 (stereo unspecified) -1.64%
Cc1ccccc1NC(=O)[C@H](CSCc1ccccc1)N1Cc2ccccc2C1=O -5.43%
CCc1ccc(S(=O)(=O)Nc2ccc(-c3ccc(N4CCCC4)nn3)cc2)cc1 7.73%
COC(=O)C(NC(=O)CCc1c(C)nc2c(c(C)nn2-c2ccccc2)c1C)C(C)C (stereo unspecified) 0.985%
COc1cc(OC)cc(C(=O)Nc2ccc3nc(Nc4cccc(C(F)(F)F)c4)cc(C)c3c2)c1 -16.3%
C#CCn1c(C2CC(=O)N(c3ccc(OCC)cc3)C2)nc2ccccc21 (stereo unspecified) 3.55%
CCN(CC)C(=O)C1CCN(c2nnc(C)c3c(C)n(-c4ccc(Cl)cc4)nc23)CC1 -4.54%
O=C(NCc1ccc(F)cc1)c1cnc(N2CCCCC2)c2ccccc12 0.4%
CCCOc1ccc(CNC(=O)C2CCCN(c3nc4c(C)cc(C)cc4s3)C2)cc1 (stereo unspecified) -5.6%
Cc1cccc(NC(=O)c2ccc(F)c(S(=O)(=O)N3CCC4(CC3)OCCO4)c2)c1 0.295%
COc1ccc(NC(=O)Cn2c(=O)n(CCCC(=O)NCCc3ccc(C)cc3)c(=O)c3ccccc32)cc1Cl -0.0143%
Cc1ccc(CCNC(=O)c2ccc3c(c2)N(Cc2ccccc2)C(=O)c2ccccc2S3=O)cc1 (stereo unspecified) 0.24%
COc1ccc(N2CCN(c3ncnc4onc(-c5ccc(F)cc5)c34)CC2)cc1 -10.9%
COc1cc(OC)c(NC(=O)N2CCc3cc(OC)c(OC)cc3C2CC(=O)O)cc1Cl (stereo unspecified) 28.7%
CC(C)c1ccc(C2c3c(-c4ccccc4O)n[nH]c3C(=O)N2Cc2ccncc2)cc1 (stereo unspecified) -10.7%
CCCCOC(=O)CSc1nnc(-c2ccc(C)cc2)o1 -10.8%
COc1ccc(C(=O)Nc2nnc(C)s2)cc1 -4.72%
Cc1ccc(Cl)cc1NC(c1ccc(F)cc1)c1nnc(-c2ccccc2)o1 (stereo unspecified) -23.8%
Cc1ccc(NC(=O)C(CC(C)C)NS(=O)(=O)c2ccc3c(c2)oc(=O)n3C)c(C)c1 (stereo unspecified) -6.54%
Cc1ccc2onc(CNC(=O)Nc3cc(F)ccc3F)c2c1 -15.8%
Cc1ccc2c(c1)Cc1c(nc(-c3ccc(Cl)cc3)nc1SCC(=O)N1CCCCC1)O2 -3.39%
Cc1ccn2c(Nc3ccc4c(c3)OCCO4)c(-c3cccs3)nc2c1 -13.5%
O=C(CSc1nnc(-c2ccc(Cl)cc2)o1)Nc1ccc(F)cc1 -3.7%
COc1cccc2c1Oc1ncccc1N(c1ccc(C(=O)NCc3ccccc3Cl)s1)C2 7.85%
CC(=O)N1CCc2c(sc3c2c(=O)n(CCc2ccccc2)c(=O)n3CC(=O)Nc2ccc(C)c(F)c2)C1 2.51%
CCc1ccccc1NC(=O)Cn1c(=O)n(Cc2ccc3c(c2)OCO3)c(=O)c2ccc(C(=O)NC3CCCCC3)cc21 0.418%
Cc1ccccc1-c1nc(CS(=O)(=O)CC(=O)NCC(C)c2ccccc2)c(C)o1 (stereo unspecified) -0.127%
O=C(COc1ccccc1Cl)NCC1(N2CCOCC2)CCCCC1 -1.49%
COc1cc(OC)c(NC(=O)C2CCCN(c3ncnc4c3nc3n4CCCCC3)C2)cc1Cl (stereo unspecified) -1.97%
CCc1ccc(OCC(=O)Nc2cc3oc4ccccc4c3cc2OC)cc1 1.15%
CCN1CCN(CCCNC(=O)c2cc3c(=O)n(C)c4ccccc4c3s2)CC1 -12%
O=C(NCCc1ccccc1)c1cnc2sc(N3CCCC3)nn2c1=O -10.4%
Cc1cccc(OCCn2c(-c3ccc(Cl)cc3)nc3ccccc3c2=O)c1 -23.6%
CCCc1nn2c(=O)cc(COC(=O)c3cccc(NC(=O)COc4ccccc4C)c3)nc2s1 0%
COC(=O)C1=C(CS(=O)(=O)c2cc(Cl)ccc2OC)NC(=O)NC1c1ccccc1 (stereo unspecified) -0.459%
CCCCOc1ccc(C(=O)N2CCN(CCc3ccncc3)CC2)cc1 2.76%
CC(=O)c1c(C)nc2nc(-c3ccccc3)nn2c1C 3.63%
COCCCNC(=O)c1oc2c(c1C)-c1nn(Cc3cccc(Cl)c3)cc1CC2 7.12%
COc1ccccc1N1CCN(C(=O)c2nn(-c3ccc(C)cc3)c(=O)n(C)c2=O)CC1 4.28%
CCOC(=O)c1ccc(Nc2c(-c3ccc(O)c(OC)c3)nc3nc[nH]n23)cc1 1.48%
Cc1cc(F)ccc1S(=O)(=O)NCC(c1ccco1)S(=O)(=O)c1cccs1 (stereo unspecified) 0.699%
CC1Cc2cc(S(=O)(=O)N3CCN(c4ccccc4F)CC3)ccc2N1C(=O)C1CCC1 (stereo unspecified) -16.4%
Cc1cc2nnc(SCC(=O)Nc3ccc(F)c(Cl)c3)n2c2ccccc12 1.27%
COc1cc(NS(=O)(=O)c2ccc3c(c2)CCN3S(C)(=O)=O)cc(OC)c1 -1.92%
CCc1nn2c(=O)cc(COC(=O)c3cccc(NC(=O)c4ccccc4Cl)c3)nc2s1 0%
CCc1ccc2c(c1)c(=O)c(S(=O)(=O)c1ccc(F)cc1)cn2CC(=O)Nc1ccc(C)cc1C -15.5%
Cc1ccc(CNC(=O)C2CCCN(S(=O)(=O)c3cccc4nsnc34)C2)cc1 (stereo unspecified) -0.372%
CCCn1ccc2c(OCC(=O)NCc3ccc(C)cc3)cccc2c1=O 0.41%
Cc1cccc(NC(=O)c2ccc(N(Cc3ccccc3)S(C)(=O)=O)cc2)c1 -8.65%
CCN(CCCNC(=O)c1cc2c(=O)n(C)c3ccccc3c2s1)Cc1ccccc1 -8.34%
Cc1ccc2c(c1)C(c1ccc(F)cc1)N(C(=O)COc1ccc(Cl)cc1Cl)CC(=O)N2 (stereo unspecified) -2.17%
COc1ccc(CNC(=O)c2cnc3sc(N4CCCC4)nn3c2=O)cc1OC -4%
CCOC(=O)c1cccc(NC(=O)CN2C(=O)c3ccccc3Sc3ncccc32)c1 -14%
CC1CCC(NC(=O)c2ccc3c(c2)N(Cc2ccccc2)C(=O)c2ccccc2S3=O)CC1 (stereo unspecified) -2.82%
COc1cc(-c2nnn(CC(=O)Nc3ccc(OC(F)(F)F)cc3)n2)cc(OC)c1OC 2.1%
Cc1ccc(C(=O)NCc2ccc(N(C)C)cc2)cc1NC(=O)c1nsc2ccccc12 0%
COc1cc(NC(=O)CC2C(=O)N(c3ccc(Cl)cc3)C(=O)N2Cc2cccs2)cc(OC)c1 (stereo unspecified) -4.53%
CN1C(C(=O)Nc2ccc(F)cc2F)=CC(c2ccco2)=NS1(=O)=O 1.64%
O=C(CSCc1ccccc1Cl)N1CCN(c2ccc(F)cc2)CC1 2.02%
Cc1nnc(NCc2ccccc2)c2c1nnn2Cc1ccccc1Cl 2.64%
Cc1cccn2c(=O)c(C(=O)NCCCN3CCCCC3C)c(O)nc12 (stereo unspecified) -0.0398%
Cc1cc2oc(C(=O)Nc3c(C(=O)Nc4ccccc4)oc4ccccc34)cc(=O)c2cc1C -13.4%
Cc1cccc(C)c1NC(=O)c1oc2ccc3c(c2c1C)C(=O)CC(C)(C)O3 -11.9%
COc1ccccc1CNC(=O)C1CCCN(S(=O)(=O)c2ccc3c(c2)CCCN3C(C)=O)C1 (stereo unspecified) -18.1%
O=C(Cn1ncc2c1-c1ccccc1OC2)N1CCN(c2ccccc2F)CC1 2.85%
COc1ccc(N2CCN(C(=O)c3cn(CC(C)C)c(=O)c4c3c3ccccc3n4C)CC2)cc1 -0.583%
CCc1ccc(-c2nn(CC(=O)Nc3ccccc3)c3c2cnc2ccc(F)cc23)cc1 -5.83%
CC(C)(C)C1CCc2c(sc(NC(=O)Cn3nnc(-c4ccccc4F)n3)c2C#N)C1 (stereo unspecified) 0.644%
O=C(Cn1c(=O)c2cccn2c2ccccc21)Nc1cc(F)ccc1F -0.946%
